# According to publication PMC4336329 (PLoS ONE, 2015):
# Out of some 310,000 compounds screened, about 14,000 (4.5%) showed an effect of 50% or more. The effect is printed as a negative number. The list shows a part of the results.
# Target: human ether-à-go-go-related gene (hERG) potassium channel (human, UniProt Q12809)
# Test: primary screen, population patch clamp on CHO cells stably expressing hERG
# 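Also: peak tail current of the secondary pulse compared with the same well before compound.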
# Sequence of human ether-à-go-go-related gene (hERG) potassium channel (Q12809 whole entry, looked up): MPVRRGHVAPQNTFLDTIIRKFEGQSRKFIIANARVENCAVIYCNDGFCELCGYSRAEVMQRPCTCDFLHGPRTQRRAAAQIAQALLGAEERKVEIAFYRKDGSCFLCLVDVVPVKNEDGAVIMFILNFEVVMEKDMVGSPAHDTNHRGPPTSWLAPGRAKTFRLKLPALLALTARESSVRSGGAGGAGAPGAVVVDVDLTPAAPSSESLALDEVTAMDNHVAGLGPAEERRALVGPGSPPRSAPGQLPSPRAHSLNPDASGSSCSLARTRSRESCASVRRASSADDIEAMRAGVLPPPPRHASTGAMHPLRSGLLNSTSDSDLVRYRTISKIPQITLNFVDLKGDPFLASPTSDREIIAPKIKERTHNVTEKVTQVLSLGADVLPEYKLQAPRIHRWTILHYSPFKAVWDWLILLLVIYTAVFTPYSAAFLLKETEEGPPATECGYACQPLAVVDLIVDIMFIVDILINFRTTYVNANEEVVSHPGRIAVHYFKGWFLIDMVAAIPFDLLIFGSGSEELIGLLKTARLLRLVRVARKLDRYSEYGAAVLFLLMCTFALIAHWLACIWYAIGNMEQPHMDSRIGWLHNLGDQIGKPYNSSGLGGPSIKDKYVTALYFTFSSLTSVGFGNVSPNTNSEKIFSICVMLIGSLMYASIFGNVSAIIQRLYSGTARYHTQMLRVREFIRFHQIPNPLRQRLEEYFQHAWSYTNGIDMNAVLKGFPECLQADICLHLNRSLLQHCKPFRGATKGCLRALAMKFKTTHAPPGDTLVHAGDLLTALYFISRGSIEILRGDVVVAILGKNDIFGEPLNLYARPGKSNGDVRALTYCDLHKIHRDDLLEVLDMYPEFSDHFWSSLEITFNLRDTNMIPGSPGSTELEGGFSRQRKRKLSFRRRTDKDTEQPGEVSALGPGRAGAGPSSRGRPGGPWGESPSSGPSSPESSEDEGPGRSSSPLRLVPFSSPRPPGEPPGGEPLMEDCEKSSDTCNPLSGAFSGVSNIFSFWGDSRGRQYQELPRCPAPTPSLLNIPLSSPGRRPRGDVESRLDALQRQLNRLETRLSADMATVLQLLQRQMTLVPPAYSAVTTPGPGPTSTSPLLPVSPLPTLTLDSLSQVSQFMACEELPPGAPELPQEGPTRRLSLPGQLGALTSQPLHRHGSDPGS
row,Structure (SMILES),"hERG current change (%, negative = inhibition) at 10uM [%]"
1,CC1CCN(CCC(=O)N/N=C/c2ccc([N+](=O)[O-])cc2)CC1,-70
2,CC(C)Cc1nnc(NC(=O)CCc2ccccc2)s1,7.49
3,O=C(NC1=NCCS1)C1CC2CCC1C2 (stereo not shown),2.05
4,CC(OC(=O)c1ccc(-c2ccc([N+](=O)[O-])cc2)o1)C(=O)NC(N)=O (stereo not shown),-13.4
5,Cc1cccc(C(=O)Nc2ccccc2C(=O)NCc2cccnc2)c1,-11.6
6,CCOc1ccc(NC(=O)Nc2cc(-c3ccccc3)sc2C(=O)OC)cc1,-4.41
7,Cc1c(-c2ccccc2)[n+](=O)c2c(n1[O-])CCCC2,11.9
8,Oc1ccc(CNc2ccccc2O)cc1,-4.59
9,CC(=O)Nc1cccc(C(=O)NC2CCCc3c2cnn3-c2cc(C)cc(C)c2)c1 (stereo not shown),-0.832
10,Nc1nnn(Cc2ccccc2)n1,15.5
11,COc1ccc(CCNC(=O)CCc2ccc(S(=O)(=O)NCC(C)C)cc2)cc1,1.13
12,Cc1cc(C)c(C#N)c(SCC(=O)Nc2nnc(-c3ccccc3)s2)n1,12.2
13,O=C(c1cc(-c2ccccc2O)on1)N1CCc2ccccc2C1,9.31
14,CCN(CC)S(=O)(=O)c1ccc(S(=O)(=O)N2CCN(C(=O)c3ccco3)CC2)cc1,4.56
15,Cc1nnc(NC(=O)COc2ccc3c(C)cc(=O)oc3c2)s1,-3.8
16,CCN(CC)CCNC(=O)CCn1nc(-c2ccc(Cl)cc2)ccc1=O,-34.4
17,Br.O=C(CN1C2=NCCN2c2ccccc21)c1cccs1,-31.3
18,Cc1nc2cc(C(=O)OCC(=O)NC34CC5CC(CC(C5)C3)C4)ccc2n1-c1ccccc1,16.1
19,O=c1[nH]c(=S)[nH]c(O)c1/C=N/N1CCOCC1,10
20,O=c1cc(CSCc2ccc(Cl)cc2)[nH]c(=O)[nH]1,0.409
21,Cc1ccccc1Nc1nnc(SCC(=O)c2cc3ccccc3o2)s1,-4.7
22,O=C(NCCCN1CCOCC1)c1ccc2c(=O)n(Cc3ccc(Cl)cc3)c(=S)[nH]c2c1,0.616

row,Structure (SMILES),"hERG current change (%, negative = inhibition) at 10uM [%]"
1,CCCCc1nc(Cl)c(CO)n1Cc1ccc(-c2ccccc2-c2nnn[n-]2)cc1.[K+],1.71
2,COc1cccc(C(=O)NCCS(=O)(=O)NCc2ccc(Cl)cc2)c1,-36.5
3,COc1cc(/C=C(\C#N)C(=O)NCCc2ccccc2)cc(OC)c1O,2.82
4,COc1ccc(S(=O)(=O)Nc2ccccc2C(=O)NCc2ccco2)cc1,-16.1
5,CCc1nnc(NC(=O)C2CCCN2C(=O)Nc2ccc(Cl)cc2)s1 (stereo not shown),1.86
6,Cc1nnc(NC(=O)Nc2ccc(Cl)c(Cl)c2)s1,23.8
7,O=C(Nc1ccccc1)N1CCN(c2nc3ccccc3s2)CC1,-49.4
8,S=C(NCCCc1ccccc1)Nc1ccc(Br)cc1,17.9
9,O=C(Nc1ccc2c(c1)N(S(=O)(=O)c1cccs1)CCC2)c1c(F)cccc1Cl,4.79
10,COc1ccc(N2C(=O)CC(Sc3nnnn3-c3ccc(F)cc3)C2=O)cc1 (stereo not shown),8.85
11,COc1ccc(NC(=O)C2CCC(CNc3c(N4CCC(C)CC4)c(=O)c3=O)CC2)cc1OC (stereo not shown),24.1
12,Cc1c(C(=O)N/N=C/c2cccs2)nc2ccccn12,9.94
13,CCOc1cc(C)c(Cl)cc1S(=O)(=O)NCc1ccc2c(c1)OCO2,-13.9
14,CCCNc1sc(S(=O)(=O)CCC)nc1S(=O)(=O)c1ccc(C)cc1,-42.8
15,CCOc1ccc(CNS(=O)(=O)c2cc(-c3cc(C)no3)ccc2OC)cc1OC,-5.07
16,Clc1ccc2nc(C3CCN(Cc4nnnn4C4CCCCC4)CC3)[nH]c2c1,-59.2
17,COc1cc(NC(=O)c2ccc(F)cc2)ccc1NC(=O)c1cc2ccccc2o1,17.9
18,O=C(N/N=C/c1cccs1)c1cc(-c2cccc3ccccc23)n[nH]1,2.99
19,Cc1nn(-c2ccccc2)nc1CNS(C)(=O)=O,-1.64
20,Cc1nc(SCC(=O)NCc2ccccc2)c2oc3ccccc3c2n1,-12.4
21,COc1ccc2c(=O)c(N3C(=O)c4ccccc4C3=O)coc2c1,-0.536
22,O=C(c1ccccc1)C(Nc1ccccn1)c1ccccc1 (stereo not shown),1.36

row,Structure (SMILES),"hERG current change (%, negative = inhibition) at 10uM [%]"
1,CCCCOc1ccc(NC(=O)C2CC=CCC2C(=O)O)cc1 (stereo not shown),13.6
2,O=C(O)CC(c1cccc([N+](=O)[O-])c1)N1Cc2ccccc2C1=O (stereo not shown),9.14
3,CC(C)CC(=O)Nc1ccc(-c2nnn(CC(=O)NCc3ccco3)n2)cc1,9.87
4,O=C(COc1ccc2c(-c3ccccc3)cc(=O)oc2c1)NCCCN1CCOCC1,-8.67
5,S=C(NC1CCCCC1)NN(c1ccccc1)c1ccccc1,-2.47
6,CCCCN(CC)CCNC(=O)CCNC(=O)Cn1ccc2ccccc2c1=O,9.02
7,COc1ccc(OC)c(S(=O)(=O)Nc2cccc3c(O)cccc23)c1,-2.03
8,CCOC(=O)C1=C(C)N=c2s/c(=C\c3ccc(OC(C)=O)cc3)c(=O)n2C1/C=C/c1ccccc1 (stereo not shown),6.85
9,CCOC(=O)c1c(NC(C)=O)sc2c(OC)c(Br)ccc12,2.16
10,O=C(Cc1cccs1)N1CCCC(c2nc(-c3ccc(S(=O)(=O)N4CCCC4)cc3)no2)C1 (stereo not shown),-13.3
11,O=C1OCCC1Sc1nnc(-c2cccs2)n1Cc1ccccc1 (stereo not shown),-29.5
12,CCCNC(=O)c1cc(-c2ccc(OC)cc2)n(CCCOC)c1C,10.1
13,CCCCc1nnc(NC(=O)CCS(=O)(=O)c2ccc(Cl)cc2)s1,-28.7
14,Cc1ccc(SC(c2ccccc2)C(Cn2cncn2)C(=O)c2ccccc2)cc1 (stereo not shown),18.9
15,Cc1c(Cl)cnc(NC(=O)CSc2nnc(C)n2Cc2ccccc2)c1Cl,-24.1
16,Fc1ccc(-c2csc3ncnc(N4CCN(Cc5ccccc5)CC4)c23)cc1,-2.14
17,CC(=O)Nc1ccc(NC(=O)c2cccc3ccccc23)cc1,6.36
18,c1ccc(N2CCN(Cc3ccc4c(c3)OCO4)CC2)nc1,-8.79
19,O=C(CSc1nnc(CNC(=O)c2ccccc2F)o1)Nc1ccc2c(c1)OCCO2,12.3
20,CCC(NC(=S)NCc1ccc(F)cc1)c1ccccc1 (stereo not shown),-1.64
21,Cc1ccc(NC(=O)CCNS(=O)(=O)c2ccccc2F)cc1S(=O)(=O)N1CCOCC1,-10.6
22,COc1cc(/C=C2\C(=N)N3N=C(S(C)(=O)=O)SC3=NC2=O)ccc1OC(=O)c1cccs1,0.921

row,Structure (SMILES),"hERG current change (%, negative = inhibition) at 10uM [%]"
1,Cc1ccccc1-c1nc(CS(=O)CC(=O)NC2CCCC2)c(C)o1 (stereo not shown),8.89
2,O=C(COC(=O)CSc1nnc(-c2ccc(Cl)cc2)o1)NCc1ccc2c(c1)OCO2,-0.394
3,COc1ccc(SC[C@H](C)CN2CC[C@H](C)CCC2=O)cc1,-6.88
4,CCCC(=O)NC(=S)Nc1ccccc1C(=O)OC,16.6
5,O=C1c2ccccc2C(O)(c2ncc[nH]2)N1C1CCCCC1 (stereo not shown),18
6,COc1ccc(-c2[nH]ncc2/C=N/NC(=O)c2cccc([N+](=O)[O-])c2)cc1OC,-62.1
7,CN(C)/C=C(/C(=O)c1ccc(Cl)cc1)S(=O)(=O)c1ccc(Cl)cc1,-33.5
8,CN1C(=O)CC(N2CCC(c3nc4ccccc4s3)CC2)C1=O (stereo not shown),-16
9,CCCCCC(=O)Nc1cccc(C2=NOC3(C2)C[C@H](C(N)=O)N(C(=O)CCCCC)C3)c1 (stereo partly shown),-70.7
10,O=C(/C=C\c1cn(-c2ccccc2)nc1-c1cccs1)N1CCOCC1,-28.9
11,Cc1cc([N+](=O)[O-])nn1Cc1ccc(C(=O)N/N=C/c2ccc(O)cc2O)cc1,5.1
12,NS(=O)(=O)c1ccc(NC(=O)COC(=O)c2cc3ccccc3cc2O)cc1,13.8
13,CC1CCCCN1C(=O)Cn1cnc2cc([N+](=O)[O-])ccc2c1=O (stereo not shown),-15.1
14,O=C(O)CC(C(=O)NCc1ccccc1)C1CCCO1 (stereo not shown),-4.34
15,CC(=O)N1CCN(c2ccc(NC(=O)c3ccccc3)cc2)CC1,-5.46
16,COc1ccc(CCNCC(O)COc2cccc(Br)c2)cc1OC (stereo not shown),-67.3
17,Fc1ccccc1/C=N/n1c(COc2ccccc2)n[nH]c1=S,5.3
18,COCc1nnc(NC(=O)c2cc(Cl)ccc2OC)s1,-5.28
19,CCN(CC)CCn1c(-c2ccc(C)cc2)nc(=S)c2c1CC(C)(C)OC2,-0.55
20,Cc1cc(C(=O)NC2CCC(C)CC2)c(C)o1 (stereo not shown),12.5
21,Cc1ccc(CC2C(=O)N(c3ccc(F)cc3)C(=O)C2C)cc1 (stereo not shown),8.26
22,O=C(NCCc1ccccc1)C(=O)Nc1ccc2c(c1)OCCO2,30.2
